The list shows a part of the results. Single values are uncertain, as repeats are few or missing.
Key:
Experiment in all cases: cell count relative to DMSO control; melanoma cells; higher = more viable cells
Settings in all cases: library dose: low library concentration; 72 h
[1] = test system: MZ2-MEL
[2] = test system: MeWo
[3] = test system: RPMI7951
[4] = test system: RVH-421
[5] = test system: SkMel28
[6] = test system: SkMel2
[7] = test system: SkMel30
[8] = test system: SkMel5
[9] = test system: UACC257
[10] = test system: UACC62
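Further: cell number obtained by counting DAPI-stained nuclei in high-throughput microscope images with image analysis software, screen run in 1,536-well plates.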

Nc1nc(F)nc2c1ncn2[C@@H]1O[C@H](CO)[C@@H](O)[C@@H]1O [fludarabine] + O=C(Nc1ccccc1)c1cc([N+](=O)[O-])ccc1Cl [GW9662] (first compound 0.2 µM, partner dose 2 µM)
cell count [1]: 110% | cell count [2]: 34.1% | cell count [3]: 83% | cell count [4]: 124% | cell count [5]: 72% | cell count [6]: 8.48% | cell count [7]: 17% | cell count [8]: 75.1% | cell count [9]: 89.2% | cell count [10]: 71.7%

Nc1nc(F)nc2c1ncn2[C@@H]1O[C@H](CO)[C@@H](O)[C@@H]1O [fludarabine] + CN(NC(=O)CC(=O)NN(C)C(=S)c1ccccc1)C(=S)c1ccccc1 [STA4783] (first compound 0.2 µM, partner dose 0.006 µM)
cell count [1]: 93.3% | cell count [2]: 24.3% | cell count [3]: 101% | cell count [4]: 86.4% | cell count [5]: 93.1% | cell count [6]: 4.29% | cell count [7]: 19.8% | cell count [8]: 59.2% | cell count [9]: 88% | cell count [10]: 74.1%

CC(=O)O[C@@]12CO[C@@H]1C[C@H](O)[C@@]1(C)C(=O)[C@H](O)C3=C(C)[C@@H](OC(=O)[C@H](O)[C@@H](NC(=O)OC(C)(C)C)c4ccccc4)C[C@@](O)([C@@H](OC(=O)c4ccccc4)[C@H]21)C3(C)C [Docetaxel] + CC(C)(C)c1cnc(CSc2cnc(NC(=O)C3CCNCC3)s2)o1 [SNS-032] (first compound 0.0001 µM, partner dose 0.01 µM)
cell count [1]: 44.6% | cell count [2]: 36.7% | cell count [3]: 44.2% | cell count [4]: 74% | cell count [5]: 31% | cell count [6]: 34.1% | cell count [7]: 41.2% | cell count [8]: 71.9% | cell count [9]: 34.7% | cell count [10]: 46.6%

Nc1ccn([C@@H]2O[C@H](CO)[C@@H](O)C2(F)F)c(=O)n1 [gemcitabine] + COc1cc(N2CCC(N3CCN(C)CC3)CC2)ccc1Nc1ncc(Cl)c(Nc2ccccc2S(=O)(=O)C(C)C)n1 [NVP-TAE684] (first compound 0.0004 µM, partner dose 0.08 µM)
cell count [1]: 99.6% | cell count [2]: 89.4% | cell count [3]: 78.8% | cell count [4]: 73.2% | cell count [5]: 102% | cell count [6]: 91.2% | cell count [7]: 112% | cell count [8]: 96.7% | cell count [9]: 86% | cell count [10]: 89.8%

CC(=O)c1c(C)c2cnc(Nc3ccc(N4CCNCC4)cn3)nc2n(C2CCCC2)c1=O [palbociclib] + COc1ccc2c(c1)CCC1C2CCC2(C)C(NCCCCCCN3C(=O)C=CC3=O)CCC12 [U73122] (first compound 0.04 µM, partner dose 0.4 µM)
cell count [1]: 92.3% | cell count [2]: 104% | cell count [3]: 69.6% | cell count [4]: 112% | cell count [5]: 110% | cell count [6]: 97.4% | cell count [7]: 82.5% | cell count [8]: 90.8% | cell count [9]: 89.8% | cell count [10]: 95.8%

Nc1ccn([C@@H]2O[C@H](CO)[C@@H](O)C2(F)F)c(=O)n1 [gemcitabine] + c1cc(-c2cnn3cc(-c4ccc(OCCN5CCCCC5)cc4)cnc23)ccn1 [Dorsomorphin] (first compound 0.0004 µM, partner dose 0.4 µM)
cell count [1]: 92.4% | cell count [2]: 98.3% | cell count [3]: 97.7% | cell count [4]: 152% | cell count [5]: 97.7% | cell count [6]: 121% | cell count [7]: 119% | cell count [8]: 88.6% | cell count [9]: 80.4% | cell count [10]: 108%

CC(=O)c1c(C)c2cnc(Nc3ccc(N4CCNCC4)cn3)nc2n(C2CCCC2)c1=O [palbociclib] + Cc1cc(N2CCOCC2)cc2[nH]c(-c3c(NC[C@@H](O)c4cccc(Cl)c4)cc[nH]c3=O)nc12 [BMS536924] (first compound 0.04 µM, partner dose 0.2 µM)
cell count [1]: 73.7% | cell count [2]: 62.1% | cell count [3]: 76.7% | cell count [4]: 65.8% | cell count [5]: 77.4% | cell count [6]: 72.5% | cell count [7]: 51.3% | cell count [8]: 64.7% | cell count [9]: 63.2% | cell count [10]: 61.7%

CC(=O)c1c(C)c2cnc(Nc3ccc(N4CCNCC4)cn3)nc2n(C2CCCC2)c1=O [palbociclib] + OCCn1cc(-c2cnc3nnn(Cc4ccc5ncccc5c4)c3n2)cn1 [PF04217903] (first compound 0.04 µM, partner dose 1 µM)
cell count [1]: 87.3% | cell count [2]: 80.7% | cell count [3]: 74.4% | cell count [4]: 85.6% | cell count [5]: 88.4% | cell count [6]: 82.6% | cell count [7]: 80.3% | cell count [8]: 79.7% | cell count [9]: 82.2% | cell count [10]: 88%

Nc1ccn([C@@H]2O[C@H](CO)[C@@H](O)C2(F)F)c(=O)n1 [gemcitabine] + CCN(CC)CCCCNc1ncc2cc(-c3cc(OC)cc(OC)c3)c(NC(=O)NC(C)(C)C)nc2n1 [PD173074] (first compound 0.0004 µM, partner dose 0.1 µM)
cell count [1]: 98% | cell count [2]: 97.8% | cell count [3]: 103% | cell count [4]: 92% | cell count [5]: 108% | cell count [6]: 94.4% | cell count [7]: 104% | cell count [8]: 102% | cell count [9]: 111% | cell count [10]: 89.5%

CC(=O)O[C@@]12CO[C@@H]1C[C@H](O)[C@@]1(C)C(=O)[C@H](O)C3=C(C)[C@@H](OC(=O)[C@H](O)[C@@H](NC(=O)OC(C)(C)C)c4ccccc4)C[C@@](O)([C@@H](OC(=O)c4ccccc4)[C@H]21)C3(C)C [Docetaxel] + Clc1ccc(Nc2nnc(Cc3ccncc3)c3ccccc23)cc1 [vatalanib] (first compound 0.0001 µM, partner dose 2 µM)
cell count [1]: 50.1% | cell count [2]: 43.7% | cell count [3]: 36.4% | cell count [4]: 58.4% | cell count [5]: 42.2% | cell count [6]: 44.5% | cell count [7]: 37.2% | cell count [10]: 39.3%

CC(=O)c1c(C)c2cnc(Nc3ccc(N4CCNCC4)cn3)nc2n(C2CCCC2)c1=O [palbociclib] + COCC[n+]1c2c(n(Cc3cnccn3)c1C)C(=O)c1ccccc1C2=O [YM155] (first compound 0.04 µM, partner dose 0.0004 µM)
cell count [1]: 49.9% | cell count [2]: 86% | cell count [3]: 78.6% | cell count [4]: 84.7% | cell count [5]: 73.2% | cell count [6]: 76.1% | cell count [7]: 75.6% | cell count [10]: 80.1%

CC(=O)c1c(C)c2cnc(Nc3ccc(N4CCNCC4)cn3)nc2n(C2CCCC2)c1=O [palbociclib] + C[C@]1(c2nc3c(C(N)=O)cccc3[nH]2)CCCN1 [Veliparib] (first compound 0.04 µM, partner dose 1.4 µM)
cell count [1]: 87.7% | cell count [2]: 74.9% | cell count [3]: 67.3% | cell count [4]: 65.7% | cell count [5]: 73.4% | cell count [6]: 83.3% | cell count [7]: 74.9% | cell count [10]: 64.6%

Nc1nc(F)nc2c1ncn2[C@@H]1O[C@H](CO)[C@@H](O)[C@@H]1O [fludarabine] + COCC[n+]1c2c(n(Cc3cnccn3)c1C)C(=O)c1ccccc1C2=O [YM155] (first compound 0.2 µM, partner dose 0.0004 µM)
cell count [1]: 52% | cell count [2]: 34.9% | cell count [3]: 78.1% | cell count [4]: 98.8% | cell count [5]: 72.3% | cell count [6]: 2.62% | cell count [7]: 13.1% | cell count [10]: 65.6%

Nc1ccn([C@@H]2O[C@H](CO)[C@@H](O)C2(F)F)c(=O)n1 [gemcitabine] + Cc1nc(Nc2ncc(C(=O)Nc3c(C)cccc3Cl)s2)cc(N2CCN(CCO)CC2)n1 [dasatanib] (first compound 0.0004 µM, partner dose 0.004 µM)
cell count [1]: 78.4% | cell count [2]: 92.5% | cell count [3]: 73.7% | cell count [4]: 99.2% | cell count [5]: 99.5% | cell count [6]: 84.8% | cell count [7]: 98.1% | cell count [10]: 87.4%

Nc1ccn([C@@H]2O[C@H](CO)[C@@H](O)C2(F)F)c(=O)n1 [gemcitabine] + Nc1cccc2c1CN(C1CCC(=O)NC1=O)C2=O [lenalidomide] (first compound 0.0004 µM, partner dose 1 µM)
cell count [1]: 95.1% | cell count [2]: 94.4% | cell count [3]: 91.5% | cell count [4]: 86.1% | cell count [5]: 96.4% | cell count [6]: 100% | cell count [7]: 105% | cell count [10]: 84.3%

Nc1ncn([C@H]2C[C@H](O)[C@@H](CO)O2)c(=O)n1 [decitabine] + OCc1c[nH]c2ccccc12 [Indole-3-carbinol] (first compound 0.1 µM, partner dose 0.8 µM)
cell count [1]: 86.3% | cell count [2]: 107% | cell count [3]: 83.1% | cell count [4]: 59.9% | cell count [5]: 82.4% | cell count [6]: 97.7% | cell count [7]: 111% | cell count [10]: 88.2%

Nc1ncn([C@H]2C[C@H](O)[C@@H](CO)O2)c(=O)n1 [decitabine] + Cn1nnc2c(C(N)=O)ncn2c1=O [temozolomide] (first compound 0.1 µM, partner dose 2 µM)
cell count [1]: 88.2% | cell count [2]: 94.8% | cell count [3]: 76.7% | cell count [4]: 92% | cell count [5]: 87.9% | cell count [6]: 97.2% | cell count [7]: 103% | cell count [10]: 66.7%

CC(=O)c1c(C)c2cnc(Nc3ccc(N4CCNCC4)cn3)nc2n(C2CCCC2)c1=O [palbociclib] + OCc1c[nH]c2ccccc12 [Indole-3-carbinol] (first compound 0.04 µM, partner dose 0.8 µM)
cell count [1]: 89.3% | cell count [2]: 84.3% | cell count [3]: 87% | cell count [4]: 71.5% | cell count [5]: 76.4% | cell count [6]: 83.6% | cell count [7]: 83.8% | cell count [10]: 86.2%

CC(=O)c1c(C)c2cnc(Nc3ccc(N4CCNCC4)cn3)nc2n(C2CCCC2)c1=O [palbociclib] + Cc1nc(Nc2ncc(C(=O)Nc3c(C)cccc3Cl)s2)cc(N2CCN(CCO)CC2)n1 [dasatanib] (first compound 0.04 µM, partner dose 0.004 µM)
cell count [1]: 70.3% | cell count [2]: 69.3% | cell count [3]: 80.6% | cell count [4]: 60.6% | cell count [5]: 65.3% | cell count [6]: 82.9% | cell count [7]: 62.9% | cell count [10]: 60.3%

CC(=O)O[C@@]12CO[C@@H]1C[C@H](O)[C@@]1(C)C(=O)[C@H](O)C3=C(C)[C@@H](OC(=O)[C@H](O)[C@@H](NC(=O)OC(C)(C)C)c4ccccc4)C[C@@](O)([C@@H](OC(=O)c4ccccc4)[C@H]21)C3(C)C [Docetaxel] + Nc1ccn([C@@H]2O[C@H](CO)[C@@H](O)C2(F)F)c(=O)n1 [gemcitabine] (first compound 0.0001 µM, partner dose 0.0004 µM)
cell count [1]: 49.9% | cell count [2]: 39.1% | cell count [3]: 34.8% | cell count [4]: 56.4% | cell count [5]: 33.9% | cell count [6]: 44.8% | cell count [7]: 39.5% | cell count [10]: 41.5%

CC(=O)O[C@@]12CO[C@@H]1C[C@H](O)[C@@]1(C)C(=O)[C@H](O)C3=C(C)[C@@H](OC(=O)[C@H](O)[C@@H](NC(=O)OC(C)(C)C)c4ccccc4)C[C@@](O)([C@@H](OC(=O)c4ccccc4)[C@H]21)C3(C)C [Docetaxel] + Cn1nnc2c(C(N)=O)ncn2c1=O [temozolomide] (first compound 0.0001 µM, partner dose 2 µM)
cell count [1]: 40.5% | cell count [2]: 34.9% | cell count [3]: 34.5% | cell count [4]: 59.9% | cell count [5]: 29.7% | cell count [6]: 35.4% | cell count [7]: 30.6% | cell count [10]: 43.5%

— the supplement of paper PMC4604168 (melanoma cell lines)
